Test in all cases: co-IP; HEK293 cells transiently co-transfected; lysis in 30 mM HEPES pH 7.9, 400 mM NaCl, 10% glycerol, 0.05% Tween-20, 2 mM BME, Benzonase; anti-DYKDDDDK magnetic beads, FLAG peptide elution, blots with anti-FLAG, anti-HA, anti-Myc
Experiment [1] has as its target T1, FLAG-Atf7IP(Δ574-666) (human) (UniProt Q6VMQ6).
T1 sequence: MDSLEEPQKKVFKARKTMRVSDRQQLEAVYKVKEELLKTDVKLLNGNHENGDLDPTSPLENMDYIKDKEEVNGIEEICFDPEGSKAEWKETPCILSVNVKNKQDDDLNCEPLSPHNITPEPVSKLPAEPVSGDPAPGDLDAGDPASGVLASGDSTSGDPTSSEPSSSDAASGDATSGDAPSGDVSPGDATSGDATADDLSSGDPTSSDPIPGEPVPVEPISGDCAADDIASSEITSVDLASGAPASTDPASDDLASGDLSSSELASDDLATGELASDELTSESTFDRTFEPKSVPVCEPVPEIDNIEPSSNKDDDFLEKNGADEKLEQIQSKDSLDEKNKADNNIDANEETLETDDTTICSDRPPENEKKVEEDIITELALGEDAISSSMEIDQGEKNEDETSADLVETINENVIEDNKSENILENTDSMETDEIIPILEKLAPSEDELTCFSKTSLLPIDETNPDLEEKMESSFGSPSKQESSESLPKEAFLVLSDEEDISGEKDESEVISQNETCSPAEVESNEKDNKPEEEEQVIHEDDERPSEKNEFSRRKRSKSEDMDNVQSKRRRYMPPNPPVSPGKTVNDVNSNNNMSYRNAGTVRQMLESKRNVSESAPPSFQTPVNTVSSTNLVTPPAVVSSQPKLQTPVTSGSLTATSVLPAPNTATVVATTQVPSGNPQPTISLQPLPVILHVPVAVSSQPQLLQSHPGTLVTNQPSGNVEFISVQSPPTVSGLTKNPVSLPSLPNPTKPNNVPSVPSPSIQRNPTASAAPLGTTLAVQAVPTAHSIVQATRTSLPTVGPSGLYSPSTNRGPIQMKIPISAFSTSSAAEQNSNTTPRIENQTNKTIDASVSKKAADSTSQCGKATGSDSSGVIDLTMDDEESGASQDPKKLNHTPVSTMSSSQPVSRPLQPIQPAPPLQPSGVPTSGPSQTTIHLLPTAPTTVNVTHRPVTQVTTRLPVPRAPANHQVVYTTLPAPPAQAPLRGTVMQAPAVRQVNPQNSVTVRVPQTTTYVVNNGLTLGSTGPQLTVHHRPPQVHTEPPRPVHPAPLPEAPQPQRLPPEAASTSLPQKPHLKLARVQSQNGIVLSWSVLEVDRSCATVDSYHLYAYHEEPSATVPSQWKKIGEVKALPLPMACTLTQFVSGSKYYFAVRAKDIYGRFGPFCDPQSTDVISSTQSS

In experiment [2] the target is T2, Flag-Atf7IP(422-841) (human) (UniProt Q6VMQ6).
T2 sequence: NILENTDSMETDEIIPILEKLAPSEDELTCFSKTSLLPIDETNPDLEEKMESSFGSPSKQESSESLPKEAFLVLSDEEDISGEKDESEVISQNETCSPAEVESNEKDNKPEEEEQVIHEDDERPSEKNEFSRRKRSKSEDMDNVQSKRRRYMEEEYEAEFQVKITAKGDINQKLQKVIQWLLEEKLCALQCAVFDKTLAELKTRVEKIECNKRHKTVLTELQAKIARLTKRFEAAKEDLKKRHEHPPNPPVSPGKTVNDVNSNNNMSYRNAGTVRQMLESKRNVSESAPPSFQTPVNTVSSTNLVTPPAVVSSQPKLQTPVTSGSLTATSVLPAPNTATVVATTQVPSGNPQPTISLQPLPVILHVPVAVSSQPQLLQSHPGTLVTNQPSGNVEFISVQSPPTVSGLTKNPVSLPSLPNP

In experiment [3] the target is full-length Atf7IP, FLAG- or Myc-tagged (human) (UniProt Q6VMQ6).
Experiment [4] concerns the target T3, full-length Atf7IP2, Flag- or Myc-tagged (UniProt Q5U623).
T3 sequence: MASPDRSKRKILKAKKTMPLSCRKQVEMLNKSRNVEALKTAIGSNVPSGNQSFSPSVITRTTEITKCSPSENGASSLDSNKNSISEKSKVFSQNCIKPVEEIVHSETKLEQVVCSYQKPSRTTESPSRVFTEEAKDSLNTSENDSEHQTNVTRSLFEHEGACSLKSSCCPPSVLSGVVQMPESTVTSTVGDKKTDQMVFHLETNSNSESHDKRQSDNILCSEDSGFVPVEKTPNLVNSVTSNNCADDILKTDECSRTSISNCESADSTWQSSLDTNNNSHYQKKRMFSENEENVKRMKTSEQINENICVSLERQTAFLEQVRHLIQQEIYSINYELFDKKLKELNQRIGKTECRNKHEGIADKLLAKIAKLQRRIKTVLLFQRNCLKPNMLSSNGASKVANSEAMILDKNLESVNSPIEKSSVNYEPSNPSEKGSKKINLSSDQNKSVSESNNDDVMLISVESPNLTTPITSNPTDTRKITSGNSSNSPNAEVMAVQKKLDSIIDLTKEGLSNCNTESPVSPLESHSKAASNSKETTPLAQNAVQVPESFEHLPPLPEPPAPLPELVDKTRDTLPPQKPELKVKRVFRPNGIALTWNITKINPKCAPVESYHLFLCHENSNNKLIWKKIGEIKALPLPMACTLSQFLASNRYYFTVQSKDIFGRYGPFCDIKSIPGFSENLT

The source of these data is article PMC12167477, “Setdb1 and Atf7IP form a hetero-trimeric complex that blocks Setdb1 nuclear export” (The Journal of Biological Chemistry, 2025).

No constants are given. Whether binding was seen depends on the method and setting. In cells and extracts the contact can be indirect. Some results given as binding are weak or reduced against the parent protein; the word gives no strength. Tags and fused reporters may be left off the sequences shown.

B1: full-length Atf7IP, FLAG- or Myc-tagged (protein, UniProt Q6VMQ6 1-1270)
chain: MDSLEEPQKKVFKARKTMRVSDRQQLEAVYKVKEELLKTDVKLLNGNHENGDLDPTSPLENMDYIKDKEEVNGIEEICFDPEGSKAEWKETPCILSVNVKNKQDDDLNCEPLSPHNITPEPVSKLPAEPVSGDPAPGDLDAGDPASGVLASGDSTSGDPTSSEPSSSDAASGDATSGDAPSGDVSPGDATSGDATADDLSSGDPTSSDPIPGEPVPVEPISGDCAADDIASSEITSVDLASGAPASTDPASDDLASGDLSSSELASDDLATGELASDELTSESTFDRTFEPKSVPVCEPVPEIDNIEPSSNKDDDFLEKNGADEKLEQIQSKDSLDEKNKADNNIDANEETLETDDTTICSDRPPENEKKVEEDIITELALGEDAISSSMEIDQGEKNEDETSADLVETINENVIEDNKSENILENTDSMETDEIIPILEKLAPSEDELTCFSKTSLLPIDETNPDLEEKMESSFGSPSKQESSESLPKEAFLVLSDEEDISGEKDESEVISQNETCSPAEVESNEKDNKPEEEEQVIHEDDERPSEKNEFSRRKRSKSEDMDNVQSKRRRYMEEEYEAEFQVKITAKGDINQKLQKVIQWLLEEKLCALQCAVFDKTLAELKTRVEKIECNKRHKTVLTELQAKIARLTKRFEAAKEDLKKRHEHPPNPPVSPGKTVNDVNSNNNMSYRNAGTVRQMLESKRNVSESAPPSFQTPVNTVSSTNLVTPPAVVSSQPKLQTPVTSGSLTATSVLPAPNTATVVATTQVPSGNPQPTISLQPLPVILHVPVAVSSQPQLLQSHPGTLVTNQPSGNVEFISVQSPPTVSGLTKNPVSLPSLPNPTKPNNVPSVPSPSIQRNPTASAAPLGTTLAVQAVPTAHSIVQATRTSLPTVGPSGLYSPSTNRGPIQMKIPISAFSTSSAAEQNSNTTPRIENQTNKTIDASVSKKAADSTSQCGKATGSDSSGVIDLTMDDEESGASQDPKKLNHTPVSTMSSSQPVSRPLQPIQPAPPLQPSGVPTSGPSQTTIHLLPTAPTTVNVTHRPVTQVTTRLPVPRAPANHQVVYTTLPAPPAQAPLRGTVMQAPAVRQVNPQNSVTVRVPQTTTYVVNNGLTLGSTGPQLTVHHRPPQVHTEPPRPVHPAPLPEAPQPQRLPPEAASTSLPQKPHLKLARVQSQNGIVLSWSVLEVDRSCATVDSYHLYAYHEEPSATVPSQWKKIGEVKALPLPMACTLTQFVSGSKYYFAVRAKDIYGRFGPFCDPQSTDVISSTQSS
As to B1, the binding entry was “no binding” in experiment [1], “binds” in experiment [2], “binds” in experiment [3] and “binds” in experiment [4].
